For this assay, the system named is NCI-H322M lung. Description: NCI tumour cell line growth inhibition, 48 h.

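Five compound concentrations were applied to cells in 96-well plates for 48 hours; endpoints were derived by simple linear interpolation of the resulting dose-response curve. GI50 = concentration required for 50% inhibition of growth. The concentration for full growth arrest is given as TGI.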

Turning to `CCCNNC(=O)c1ccc(-c2ccc(NC(=O)CCCCCCC(=O)N[C@H](C(=O)N3C[C@H](O)C[C@H]3C(=O)N[C@@H](C)c3ccc(-c4scnc4C)cc3)C(C)(C)C)cc2)cc1`, the GI50 is 3.63 µM and the TGI was greater than 100 µM.
Take `Nc1ncc(-c2ccc3ncnc(N4CCc5cc(F)c(Cl)cc54)c3c2)cn1`: the GI50 was 0.937 µM and the TGI was greater than 100 µM.
